Assay results taken from PubChem BioAssay (Tox21).
Where “and” joins values, the source holds several entries; their conditions need not be identical. Equal values may be shown once. Inconclusive means that the source gave no clear call. Such entries were picked first, then a sample of the others. For some assays here: A potency beside an inconclusive call is a rough fit, not a confirmed value. Calls of active or inactive are those of the source. Unless noted, the call rests on the fitted dose curve; in most records, active means well fitted curve in the direction sought with a large enough effect in the repeat runs; inconclusive means weak or mixed curves; inactive means no such curve, though single readings can be large; an effect the other way counts as inactive or inconclusive.

How the values were obtained:
[1] = biological target: Progesterone receptor (Homo sapiens) (UniProt P06401); assay: qHTS assay to identify small molecule antagonists of the progesterone receptor (PR) signaling pathway (AID 1346795; active means well fitted inhibition curve with a large enough effect in the signal ratio in the repeat runs, not every such curve was filed as active; inconclusive means weak or mixed curves; the % refers to the signal ratio; on activity change, negative = inhibition: on the % scale 0 is the no-effect control and ±100 the full control effect); conditions: PR-UAS-bla HEK293T, beta-lactamase FRET ratio, 16 h; activity change, negative = inhibition: at 92.4 µM (top of the series) unless noted
Summary of the method: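 Read-out is fluorescence from the LiveBLAzer B/G FRET substrate, cleaved by a UAS-controlled beta-lactamase in PR-UAS-bla HEK293T cells after 16 hr exposure to compound plus 1 nM promegestone (final), followed by 2 hr at room temperature.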

[2] = qHTS assay to identify small molecule antagonists of the progesterone receptor (PR) signaling pathway - cell viability counter screen (AID 1346798); further: nearly all actives have a fitted effect of over 50% in size;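 on activity change, negative = cytotoxicity: HEK293T PR-UAS-bla cells stimulated with the agonist R5020; on the % scale 0 is the no-effect control and ±100 the full control effect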
Summary of the method: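 HEK293T PR-UAS-bla, 2% charcoal-stripped FBS; 4 hr pre-plate; cpd + R5020, 16 h 37C; LiveBLAzer read first; then CellTiter-Glo 30 min RT, luminescence.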

[3] = qHTS assay to identify small molecule agonists of the progesterone receptor (PR) signaling pathway - cell viability counter screen (AID 1346799; calls by dose curve; further: nearly all actives have a fitted effect of over 45% in size; on activity change, negative = cytotoxicity: on the % scale 0 is the no-effect control and ±100 the full control effect)
Summary of the method: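 Luminescence from CellTiter-Glo, added after the beta-lactamase FRET read in the same wells, gave cytotoxicity in PR-UAS-bla HEK293T cells treated with compounds for 16 hr at 37C.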

[4] = qHTS assay to identify small molecule agonists of the TGF-beta/Smad signaling pathway (AID 1346859; active means well fitted activation curve with a large enough effect in the signal ratio in the repeat runs, not every such curve was filed as active; inconclusive means weak or mixed curves; the % refers to the signal ratio); conditions: SBE-bla HEK293T, TGF-beta/Smad beta-lactamase reporter, 5 h; activation: at 76.8 µM (top of the series)
Summary of the method: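 SBE-bla HEK 293T, 4,000 cells/well, plated o/n; cpd in DMSO, 5 hr, 37 C/5% CO2; B/G FRET substrate 2 hr RT; ex 405, em 460/530 nm.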

[5] = qHTS assay to identify small molecule antagonists of the TGF-beta/Smad signaling pathway (AID 1346924; active means well fitted inhibition curve with a large enough effect in the signal ratio in the repeat runs, not every such curve was filed as active; inconclusive means weak or mixed curves; the % refers to the signal ratio); conditions: SBE-bla HEK293T, TGF-beta/Smad reporter, beta-lactamase ratio; activity, negative = inhibition: at 76.8 µM (top of the series) unless noted
Summary of the method: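 Read-out was FRET-substrate fluorescence (405 nm excitation; 460 and 530 nm emission) after 2 h at room temperature. Before that, cells carrying a Smad-binding-element beta-lactamase reporter in HEK 293T had been stimulated 5 h at 37 C with TGF-beta1 (0.25 ng/mL addition solution) in the presence of test compound.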

[6] = Human pregnane X receptor (PXR) small molecule agonists, qHTS cell viability counter screen (AID 1346977); further: nearly all actives have a fitted effect of over 50% in size
Summary of the method: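 PXR-Luc HepG2, 2,000 cells/well, 5% charcoal-stripped FBS; 5hr settle; cpd 24hr, 37C/5% CO2; CellTiter-Fluor at 23hr, read 1hr later (fluorescence).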

[7] = Caspase-3/7 induction in CHO-K1 cells by small molecules, qHTS cell viability counter screen (AID 1346979); conditions: CellTiter-Fluor fluorescence, 17 h; activity change, negative = cytotoxicity: at 92.4 µM (top of the series); further: nearly all actives have a fitted effect of over 35% in size
Summary of the method: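 Cells (CHO-K1, wild type) are plated at 1,500 per well and incubated 5hr. Test compounds in DMSO are then pinned in, followed by 16hr at 37C and 5% CO2. Viability is read by CellTiter-Fluor fluorescence after 1hr.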

[8] = Caspase-3/7 induction in CHO-K1 cells by small molecules, qHTS assay (AID 1346980); further: nearly all actives have a fitted effect of over 15% in size
Summary of the method: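 Wild-type CHO-K1 cells exposed to compounds for 17hr at 37 C, 5% CO2. Caspase-3/7 activity then measured by Caspase-Glo 3/7 luminescence after 30min at room temperature.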

[9] = Caspase-3/7 induction in HepG2 cells by small molecules, qHTS cell viability counter screen (AID 1346981); further: nearly all actives have a fitted effect of over 30% in size
Summary of the method: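 The parent HepG2 line is plated at 2,000 cells per well and rested 5 hr before compound pinning from DMSO stocks. Following a 16-hr treatment at 37 C, a fluorogenic live-cell substrate (CellTiter-Fluor) reports viability after 1 hr.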

[10] = biological target: Nuclear receptor subfamily 1 group I member 2 (Rattus norvegicus) (UniProt Q9R1A7); assay: Rat pregnane X receptor (rPXR) activation by small molecules, qHTS assay (AID 1346983); conditions: rPXR luciferase reporter cells, One-Glo luminescence, 24 h; max activation: stronger effect = higher value; further: nearly all actives have a fitted effect of over 20% in size
Summary of the method: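 Cell-based rPXR activation assay: rPXR cells, 2,000 per well, rested 5hr at 37 C, then exposed to compounds in DMSO for 24 hr at 37 C. Luciferase activity read by One-Glo luminescence after 30 min at room temperature.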

[11] = biological target: Thyrotropin-releasing hormone receptor (Homo sapiens) (UniProt P34981); assay: qHTS assay to identify small molecule antagonists of the thyrotropin-releasing hormone receptor (TRHR) signaling pathway (AID 1346877; active means well fitted inhibition curve with a large enough effect in the repeat runs, not every such curve was filed as active; inconclusive means weak or mixed curves)
Summary of the method: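 Human TRHR in HEK293 cells; inhibition of the intracellular calcium rise triggered by 1 nM TRH was followed by fluorescence over 3 min. Compounds were run at 15 concentrations, three replicates each.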

[12] = biological target: Cytochrome P450 2D6 (Homo sapiens) (UniProt P10635); assay: Cytochrome P450 Family 2 Subfamily D Member 6 (CYP2D6) small molecule antagonists: luciferase reporter qHTS assay (AID 1671196); further: nearly all actives have a fitted effect of over 50% in size
Summary of the method: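 Quantitative HTS of Tox21 chemicals against CYP2D6 using a luminescent proluciferin substrate. After NADPH addition, 1 h room-temperature reaction; luminescence recorded 20 min post detection reagent.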

[13] = biological target: Nuclear receptor subfamily 1 group I member 2 (Homo sapiens) (UniProt O75469); assay: Human pregnane X receptor (PXR) small molecule agonists, qHTS assay (AID 1346982); further: nearly all actives have a fitted effect of over 35% in size
Summary of the method: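 After plating in 5% charcoal-stripped FBS and a 5 hr rest, PXR-Luc HepG2 cells received compounds in DMSO. Following 24 hr at 37 C, ONE-Glo was added and light output read.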

[14] = biological target: Cytochrome P450 2C9 (Homo sapiens) (UniProt P11712); assay: Cytochrome P450 Family 2 Subfamily C Member 9 (CYP2C9) small molecule antagonists: luciferase reporter qHTS assay (AID 1671198); further: nearly all actives have a fitted effect of over 50% in size
Summary of the method: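 P450-Glo proluciferin substrate with CYP2C9 enzyme; 10 min RT preincubation, then NADPH regeneration 1 h at 37C; luciferin detection reagent 20 min RT, luminescence in relative luminescence units.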

[15] = Caspase-3/7 induction in HepG2 cells by small molecules, qHTS assay (AID 1346978); further: nearly all actives have a fitted effect of over 15% in size
Summary of the method: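 Wild-type HepG2 cells, 2,000/well, settled 5 hr at 37 C and 5% CO2, then compound-treated for 17 hr; caspase-3/7 activity read by luminescent Caspase-Glo 3/7 after 30 min at room temperature.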
Potency means the concentration at half of the fitted maximal effect; tags describe the fitted curve by direction and shape or compound fluorescence and quenching.

UniProt O75469, sequence (O75469 whole entry, looked up): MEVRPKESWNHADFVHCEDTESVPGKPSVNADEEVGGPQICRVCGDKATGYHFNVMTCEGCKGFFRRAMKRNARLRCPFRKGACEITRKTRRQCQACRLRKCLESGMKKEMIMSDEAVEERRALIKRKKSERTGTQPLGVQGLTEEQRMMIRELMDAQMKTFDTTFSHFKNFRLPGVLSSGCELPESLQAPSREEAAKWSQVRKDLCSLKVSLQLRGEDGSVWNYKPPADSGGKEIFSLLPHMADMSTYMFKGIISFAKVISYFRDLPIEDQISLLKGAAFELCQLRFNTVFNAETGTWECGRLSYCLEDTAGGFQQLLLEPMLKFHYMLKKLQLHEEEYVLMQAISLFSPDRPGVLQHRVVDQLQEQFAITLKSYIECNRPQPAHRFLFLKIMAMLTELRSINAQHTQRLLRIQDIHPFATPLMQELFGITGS
UniProt P11712, sequence (P11712 whole entry, looked up): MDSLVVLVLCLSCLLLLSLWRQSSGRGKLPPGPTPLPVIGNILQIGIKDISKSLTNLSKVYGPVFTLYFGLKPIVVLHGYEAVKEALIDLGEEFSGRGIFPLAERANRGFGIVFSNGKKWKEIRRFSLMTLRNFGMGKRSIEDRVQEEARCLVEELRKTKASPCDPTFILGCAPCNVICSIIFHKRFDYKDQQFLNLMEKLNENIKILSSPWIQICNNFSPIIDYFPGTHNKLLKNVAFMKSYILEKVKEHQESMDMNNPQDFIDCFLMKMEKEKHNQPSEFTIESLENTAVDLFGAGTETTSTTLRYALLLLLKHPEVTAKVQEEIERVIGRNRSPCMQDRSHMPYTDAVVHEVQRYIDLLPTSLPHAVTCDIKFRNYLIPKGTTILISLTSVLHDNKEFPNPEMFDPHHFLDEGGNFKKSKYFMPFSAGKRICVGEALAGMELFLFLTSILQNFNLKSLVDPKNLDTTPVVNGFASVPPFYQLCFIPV
UniProt P10635, sequence (P10635 whole entry, looked up): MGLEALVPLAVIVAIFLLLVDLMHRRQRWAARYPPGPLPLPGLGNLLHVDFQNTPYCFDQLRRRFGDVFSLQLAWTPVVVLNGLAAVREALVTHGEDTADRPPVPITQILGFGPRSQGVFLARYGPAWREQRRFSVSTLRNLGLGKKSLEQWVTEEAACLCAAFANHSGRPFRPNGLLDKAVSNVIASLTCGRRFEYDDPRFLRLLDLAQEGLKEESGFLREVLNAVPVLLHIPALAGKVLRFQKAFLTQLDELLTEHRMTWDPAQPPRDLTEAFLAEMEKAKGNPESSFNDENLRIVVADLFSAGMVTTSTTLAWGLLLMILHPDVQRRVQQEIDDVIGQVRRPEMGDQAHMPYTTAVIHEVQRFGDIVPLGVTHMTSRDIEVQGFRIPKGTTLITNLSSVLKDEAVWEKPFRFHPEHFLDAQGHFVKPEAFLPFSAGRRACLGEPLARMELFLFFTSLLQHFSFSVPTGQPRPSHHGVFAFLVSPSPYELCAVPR
UniProt P06401, sequence (P06401 whole entry, looked up): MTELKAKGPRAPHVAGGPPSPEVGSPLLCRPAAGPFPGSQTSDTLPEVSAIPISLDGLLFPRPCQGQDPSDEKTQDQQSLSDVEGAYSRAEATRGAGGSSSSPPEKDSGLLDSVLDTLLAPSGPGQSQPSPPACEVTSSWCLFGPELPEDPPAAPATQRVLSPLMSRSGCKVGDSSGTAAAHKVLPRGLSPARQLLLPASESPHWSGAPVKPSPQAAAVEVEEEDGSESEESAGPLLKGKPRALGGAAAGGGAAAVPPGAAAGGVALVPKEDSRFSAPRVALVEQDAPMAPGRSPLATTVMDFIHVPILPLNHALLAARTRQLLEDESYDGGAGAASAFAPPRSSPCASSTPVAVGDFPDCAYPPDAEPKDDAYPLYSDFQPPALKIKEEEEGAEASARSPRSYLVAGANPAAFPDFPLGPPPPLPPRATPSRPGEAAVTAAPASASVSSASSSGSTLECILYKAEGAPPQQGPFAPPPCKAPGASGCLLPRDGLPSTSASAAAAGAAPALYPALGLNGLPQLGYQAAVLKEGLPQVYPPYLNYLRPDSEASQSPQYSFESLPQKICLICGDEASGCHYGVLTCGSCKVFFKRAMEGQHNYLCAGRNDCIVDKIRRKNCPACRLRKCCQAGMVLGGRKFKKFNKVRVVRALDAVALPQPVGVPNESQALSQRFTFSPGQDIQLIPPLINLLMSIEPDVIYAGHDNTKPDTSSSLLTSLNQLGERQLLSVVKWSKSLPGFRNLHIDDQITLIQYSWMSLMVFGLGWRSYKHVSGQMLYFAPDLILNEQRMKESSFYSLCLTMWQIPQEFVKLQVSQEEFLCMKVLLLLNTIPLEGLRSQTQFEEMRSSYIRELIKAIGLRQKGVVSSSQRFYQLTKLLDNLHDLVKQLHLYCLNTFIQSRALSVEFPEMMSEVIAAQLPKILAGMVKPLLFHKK
UniProt P34981, sequence (P34981 whole entry, looked up): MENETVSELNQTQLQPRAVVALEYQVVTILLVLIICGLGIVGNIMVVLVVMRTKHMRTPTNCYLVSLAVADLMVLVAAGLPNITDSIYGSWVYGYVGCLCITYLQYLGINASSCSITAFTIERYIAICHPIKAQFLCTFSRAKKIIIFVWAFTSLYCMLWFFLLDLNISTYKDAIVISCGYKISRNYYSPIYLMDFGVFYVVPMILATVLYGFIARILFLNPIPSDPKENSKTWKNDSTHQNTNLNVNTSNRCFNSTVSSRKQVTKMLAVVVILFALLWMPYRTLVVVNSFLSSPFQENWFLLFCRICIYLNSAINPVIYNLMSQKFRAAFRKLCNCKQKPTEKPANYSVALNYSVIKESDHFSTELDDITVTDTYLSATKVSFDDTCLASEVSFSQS
UniProt Q9R1A7, sequence (Q9R1A7 whole entry, looked up): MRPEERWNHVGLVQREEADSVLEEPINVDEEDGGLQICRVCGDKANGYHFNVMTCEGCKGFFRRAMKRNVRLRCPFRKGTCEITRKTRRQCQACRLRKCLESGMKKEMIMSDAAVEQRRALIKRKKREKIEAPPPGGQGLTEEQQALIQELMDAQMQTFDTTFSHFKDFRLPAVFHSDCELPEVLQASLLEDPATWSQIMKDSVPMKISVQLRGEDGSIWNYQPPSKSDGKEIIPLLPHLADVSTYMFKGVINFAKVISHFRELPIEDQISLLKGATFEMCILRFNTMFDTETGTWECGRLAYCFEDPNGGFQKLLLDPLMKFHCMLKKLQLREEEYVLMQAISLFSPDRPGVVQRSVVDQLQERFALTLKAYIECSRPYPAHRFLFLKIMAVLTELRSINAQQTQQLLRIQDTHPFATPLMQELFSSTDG

CCN(CC)CCCC(C)Nc1c2ccc(Cl)cc2nc2ccc(OC)cc12 (stereo not given)
active: Potency [2] 13.3 µM
inconclusive: Potency [1] 23.7 µM [rising, partial curve] | Potency [3] 2.66 µM [cytotoxic, full curve] | Potency [4] 9.52 µM [fluorescent, partial curve] | Potency [5] 7.56 µM [rising, partial curve] | Potency [6] 5.96 µM [cytotoxic, full curve] | Potency [7] 4.73 µM [cytotoxic, full curve] | Potency [8] 33.5 µM [activator, single point] | Potency [9] 13.3 µM [cytotoxic, single point] | Potency [10] 12.6 µM [activator, partial curve]

O=C1C=CC(=O)N1c1cccc(N2C(=O)C=CC2=O)c1
inconclusive: activity change, negative = inhibition [1] -19.8% | Potency [2] 68.6 µM [cytotoxic, single point] | Potency [3] 77 µM [cytotoxic, single point] | Potency [11] 38 µM [inhibitor, single point]
active: Potency [6] 61.1 µM | Potency [12] 71 µM

Cc1cc([N+](=O)[O-])ccc1N
inconclusive: Potency [1] 30.2 µM [falling, partial curve] | Potency [2] 26.9 µM [rising, full curve] | Potency [6] 60.3 µM [cytotoxic, partial curve] | Potency [13] 30.2 µM [activator, partial curve, poor fit]
inactive: Potency [3]
active: Potency [9] 33.9 µM

O=C(CCc1ccc(O)cc1)c1c(O)cc(O)cc1O
inconclusive: Potency [2] 27.9 µM [rising, partial curve] | Potency [3] 24.9 µM [rising, partial curve] | activity, negative = inhibition [5] 3.86% | Potency [6] 62.5 µM [cytotoxic, single point] | Potency [7] 70.1 µM [cytotoxic, single point] | Potency [13] 70.1 µM [activator, single point] | Potency [12] 64.7 µM [inhibitor, partial curve, poor fit]
active: Potency [1] 31.3 µM

[O-]/[N+](=N\O)c1ccccc1
inconclusive: activity change, negative = inhibition [1] -6.03% and -22.9% | Potency [3] 24.1 µM [rising, full curve] | Potency [7] 60.6 µM [rising, partial curve, poor fit] | Potency [9] 21.7 µM [rising, partial curve, poor fit] | Potency [13] 60.6 µM [activator] and 34.4 µM [activator, partial curve] | Potency [14] 78.9 µM [inhibitor, partial curve, poor fit] and 71 µM [inhibitor]
inactive: Potency [2]

CCCCCCCCCCCCCCN(CCO)CCO
active: Potency [3] 34.4 µM | Potency [15] 30.6 µM | Potency [9] 68.6 µM | Potency [12] 7.96 µM | Potency [14] 31.7 µM
inconclusive: Potency [1] 68.6 µM [falling, single point] | Potency [2] 68.6 µM [cytotoxic, single point]

COC(=O)C1=C(C)NC(C)=C(C(=O)OC(C)(C)CN(C)CCC(c2ccccc2)c2ccccc2)C1c1cccc([N+](=O)[O-])c1 (stereo not given)
active: Potency [1] 6.68 µM | Potency [7] 16.8 µM
inconclusive: Potency [2] 11.9 µM [rising, partial curve] | Potency [3] 9.44 µM | Potency [6] 23.7 µM [cytotoxic, partial curve] | Potency [9] 33.5 µM [cytotoxic, single point]

NC(=O)N(O)[C@@H]1COc2cc(OCc3ccccc3)ccc21
inconclusive: Potency [2] 21.7 µM [rising, partial curve] | Potency [3] 3.44 µM [rising, full curve]
active: Potency [1] 13.7 µM | Potency [7] 24.3 µM

Fc1ccc(C(c2ccc(F)cc2)N2CCN(C/C=C/c3ccccc3)CC2)cc1
active: Potency [1] 23.7 µM
inconclusive: Potency [2] 33.5 µM [cytotoxic, single point] | Potency [3] 26.6 µM [cytotoxic, partial curve, poor fit] | activity, negative = inhibition [5] -44.9% [at 35.3 µM] | Potency [9] 29.8 µM [cytotoxic, partial curve] | Potency [13] 15 µM [activator, partial curve, poor fit]

S=C([S-])NCCNC(=S)[S-].S=C([S-])NCCNC(=S)[S-].[Mn+2].[Zn+2]
inconclusive: Potency [1] 26.6 µM | Potency [2] 2.11 µM [rising, full curve] | Potency [3] 6.68 µM [rising, partial curve] | Potency [7] 29.8 µM [cytotoxic, partial curve, poor fit] | Potency [12] 17.4 µM [inhibitor, partial curve]
